Laboratory results taken from the supplement of paper PMC11417369.
± gives the standard deviation of the averaged measurements. The list shows a part of the results.

system: PfAP2-G AP2 domain (GST-tagged); test: gcPBM binding intensity (ln(normalized median fluorescence intensity)); higher = stronger DNA binding
How it was run: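 For binding intensity, the highest Masliner-normalised natural-log median intensity across replicate spots of either probe orientation was taken. Protein bound to the array was stained with Alexa488 anti-GST antibody and scanned at 488 nm. The protein, GST-tagged P. falciparum DNA-binding domains from E. coli at about 25 μg on average, had been applied for 1 h to an Agilent 4 × 180k array of primer-extended double-stranded 36-bp intergenic genomic probes and negative controls.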

Sequence | gcPBM binding intensity (ln)
ATAATTCCAAGAATTTCATATATCTGAATTTTAGGT [GTGCAC_negctrl_site283] | 9.61 ± 0.2
ATATATATATATATTACACACTTTTTCTTTTTTTTT [CACACA_site2780] | 9.9 ± 0.45
AATAAACATAAATAAAAATTATAAAATATATATATG [CACACA_negctrl_site1709] | 9.65 ± 0.071
AAAAAAAAATATACATATATATATATATATATATAT [CACACA_negctrl_site1763] | 9.74 ± 0.56
GTGGAATAATATATATGTACATATTTAAAATATTTA [XGTACX_site3499] | 11.1 ± 0.66
AATGGTCTTTTCAACACACGTACATAAAAATATTAT [CACACA_site2571] | 11.5 ± 0.95
TATTATTTTAGAATGCGTACTTATAAAATATTTTAT [XGTACX_site867] | 11.5 ± 0.96
ATTTTTTTACAAAAATGTACACATGAAATATGTAAT [XGTACX_site1372] | 11.3 ± 0.69
TAAAAGTATATATATACACACATAAATATATCTGTA [CACACA_site4537] | 9.76 ± 0.028
TGACAACATAGAGGGGCACACACATATATACATAAA [CACACA_site8550] | 10.6 ± 0.53
TTAAATTATTAGAGAGTGCATTATATATATTATACA [GTGCAC_site9711] | 9.71 ± 0.13
GTGTGATGGTCCAATATACACACTTAAAAAAAAAAA [CACACA_site2426] | 10.8 ± 0.72
TACTGTTATAAATGTGGTACTAATATTATACATATA [XGTACX_site5116] | 11.1 ± 0.74
TATATATATATATACACATGCAAAAATTTTTAATTT [TGCATGCA_site82] | 10.2 ± 0.35
TTTCTATATGGATTTGCACACATAAAAATGCTTATA [CACACA_site8751] | 10.1 ± 0.26
TTATTTAACGTATTCTCACACATATATATATATAAT [CACACA_site5226] | 10.3 ± 0.23
ACATAAGAATTTTTATGTACTCATAATATTTTATAT [XGTACX_site2398] | 11.5 ± 0.96
TACATACTAAAAAAATGTACTTGTATTGTTTTTTTA [XGTACX_site8357] | 11.1 ± 0.64
GAAATATTTGTAAAAACATGCATGGTACTTTTAAAA [TGCATGCA_site6] | 11 ± 0.7

Sequence | gcPBM binding intensity (ln)
TAGAAGCATCATTTTACACACATGCAAATGTAAAAT [CACACA_site1893] | 9.83 ± 0.085
AAAAATAAGAGCGTAGCACACACGCATTTTATAAAT [CACACA_site8147] | 9.985 ± 0.035
TCTTTAATGATGTGTACACAAGAAAACATTGTTAAG [CACACA_site5299] | 11.7 ± 0.89
TATTTCTTATTACATACACACATATACATATATGAC [CACACA_site3201] | 10.12 ± 0.092
TCCAGGCTACACTCTAGTACTCGTAGGGTTATGAGA [XGTACX_site4945] | 11.1 ± 0.7
TTATTGAACTTTTATAAAACCTGTATTATTATCTCT [CACACA_negctrl_site767] | 9.99 ± 0.071
TTATATTAATAATAAAGTACAAAAAATCATATATAA [XGTACX_site799] | 11.1 ± 0.67
ATGACATATAAATATACACACATACGTAAGTATATT [CACACA_site5058] | 9.96 ± 0.11
ATATATATATATATATGTACATATGTTAGGATCAAA [XGTACX_site8626] | 11.3 ± 0.68
AAATTAAAAATAATTACACACATAGAAAAATTATAT [CACACA_site2275] | 9.79 ± 0.2
GTAATACACAGACACACACACATACACATATTTATA [CACACA_site7313] | 10.3 ± 0.17
TTCTATATATAATATTGTACTTAATTATTTTATTTT [XGTACX_site2701] | 11.1 ± 0.59
AGTGTATATAGAAACATACACACATATTAATTTTAC [CACACA_site3127] | 9.985 ± 0.021
TAGCTGTTCAAAAAATGTACATATATAATATATATA [XGTACX_site5842] | 11.2 ± 0.91
ATATATATGCATTCAAGTACAAAAATATATGTTAAA [XGTACX_site910] | 10.9 ± 0.64
TTATATTTATATTTATGTACATATTTTGTGTGAAAA [XGTACX_site2367] | 11.4 ± 0.97
TCTATTTATATGTATTGTACAATATAGATGTGTATT [XGTACX_site5646] | 10.9 ± 0.51
CCTAAATAATATCTATCACACACGCATATATACATA [CACACA_site8838] | 9.73 ± 0.18
AAAAAAAAAAAAAAAACACACATATATATATAATAT [CACACA_site1159] | 10.1 ± 0.21

Sequence | gcPBM binding intensity (ln)
GATAATCAGAATGGGGTGCAAAGAAAAAAAAAAAAA | 10.6 ± 0.8
ATATAATAACATAACACACACATGTATTTATAGGTG [CACACA_site359] | 10.31 ± 0.035
ACATTATAATATTATTGTACTATATATATAATATAT [XGTACX_site2291] | 11 ± 0.47
ATGTATATAAATAGGTGTACATATAAGGTGTTAAGC [XGTACX_site5465] | 11.6 ± 0.83
ATAATAAGAAAAAAAAAAAAAAAAAAAAAAAAAAAA [TGCATGCA_negctrl_site377] | 9.59 ± 0.58
ATATTGAAATGTTAATAGAAATATATGGTTAAATTG [XGTACX_negctrl_site212] | 9.89
TACACAAACGTTATACGTACACAGGTTTTTCTTTTA [XGTACX_site5427] | 11.4 ± 0.91
AGAATTAAAATAATACGTACACACATGTATAATACA [XGTACX_site1878] | 11.5 ± 0.82
ATTATATCTATAATATGTACATATTATAATATATAT [XGTACX_site3211] | 11.1 ± 0.55
AATTGTTAATGGTACGAACACACATATAAAGATGCA [CACACA_site2043] | 10.7 ± 0.43
ATATGGCATAAAACATGTACATGTTCATAAATATAT [XGTACX_site1924] | 11.2 ± 0.68
ACCTCTCATATGTTATAAACAAAATGAAAATTTCAT [XGTACX_negctrl_site303] | 10.1 ± 0.31
ATTTTATTTTATTAAGTGCAAAAAAAAAAAAAGAAA | 10.1 ± 0.45
TGTACAATATAAGGAGCACACAAAAATGGATAAATA [CACACA_site8216] | 10.45 ± 0.085
AAATAATCTATACACAACGTATAAGAATAATATATG [TGCATGCA_negctrl_site422] | 10.1 ± 0.18
TAAATAATGTTAAACACACATACCGATATATAATTA [CACACA_site2711] | 9.815 ± 0.007
GCTAGTTCATAAAATTGTACAAAAAAAAAAAAAAAA [XGTACX_site2223] | 10.8 ± 0.76
TTTTTTATCTAATATTTTATAATTTTCATAAATTTG [GTGCAC_negctrl_site534] | 9.71 ± 0.16
